From PubChem BioAssay AID686979 (National Center for Advancing Translational Sciences (NCATS), 2013)
Hit rate of the full screen: of about 420,000 compounds, about 50,000 (12%) were called active. The inconclusive results got no clear call from the source; some entries with a clear call stand among them for comparison. Calls follow the shape of the dose curve; as a rule, active = well fitted inhibition curve with a large enough effect; inconclusive = small, poorly fitted or top-dose-only effect; inactive = flat fitted curve, though single readings scatter. Potencies of inconclusive entries are left out as doubtful fits.
% is scaled to controls: 0 for no effect and ±100 for the full control effect; potency is read from the fitted curve at half-maximal effect; tags tell the direction and shape of the fitted curve.

Assay: qHTS for Inhibitors of human tyrosyl-DNA phosphodiesterase 1 (TDP1): qHTS in cells in presence of CPT; also: nearly all actives have a fitted effect of over 55% in size
Details: chicken DT40 Tdp1-/-;hTDP1 cells + 20 nM CPT, ATP luminescence, 48 h; activity change, negative = growth inhibition: at 46.2 µM (top of the series) unless noted
In short: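 Cell growth measured by CellTiter-Glo luminescence after a minimum 48 h, 37 C compound exposure with 20 nM CPT in Tdp1-knockout DT40 cells stably expressing hTDP1, seeded 400/well; qHTS titration format.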
For `COc1ccc(OC)c(CCNC(=O)CCn2nc(C)c3c(C)n(-c4ccccc4)nc3c2=O)c1`, the “activity change, negative = growth inhibition” value was inactive: -0.976%.
For `O=C(NNC(=O)c1ccccc1O)c1ccc(S(=O)(=O)Nc2ccccc2F)cc1`, the Potency was inconclusive [inhibitor, single point].
For `CC1CCN(S(=O)(=O)c2csc(C(N)=O)c2)CC1`, the Potency was inconclusive [inhibitor, single point].
In the case of `COc1ccccc1N1CCN(c2ncnc3c2c(-c2ccccc2)cn3-c2cccc(C)c2)CC1`, the Potency is reported as active: 18.4 µM.
For `CCC[C@@H]1C[C@@]1(CCC)[C@@H](NP(=O)(c1ccccc1)c1ccccc1)c1ccc(C(=O)OC)cc1`, the Potency was inconclusive [inhibitor, single point].
With `Cc1ccc(CCNC(=O)C2CCCN(S(=O)(=O)c3c(C)noc3C)C2)cc1` (stereo not drawn) the Potency was inconclusive [inhibitor, partial curve].
For `CC(C)c1ccc(-c2noc(C3CCCN(C(=O)c4ccc(F)cc4F)C3)n2)cc1` (stereo not drawn), the Potency was inconclusive [inhibitor, single point].
With `Nc1cc2nc[nH]c2cc1N` the Potency was inconclusive [inhibitor, single point].
With `CCCCOc1ccc(C(=O)NCC(=O)NCC(=O)OCC)cc1` the Potency was active: 16.4 µM.
With `O=C(NCC(c1cccnc1)N1CCN(c2ccc(F)cc2)CC1)c1cccc(Cl)c1` (stereo not drawn) the Potency was active: 16.4 µM.
For `CCn1ncc(Br)c1C(=O)Nc1nccs1`, the “activity change, negative = growth inhibition” value was inactive: 2.08%.
In the case of `CC(=O)Nc1ccc(N2C(=O)C3C4CC(=O)C(c5ccccc54)C3C2=O)cc1` (stereo not drawn), the activity change, negative = growth inhibition is reported as inconclusive: -35.7% [inhibitor].
In the case of `CCN1CCN(c2ncnc3c2cnn3-c2cc(Cl)ccc2C)CC1`, the Potency is reported as inconclusive [inhibitor, single point].
In the case of `O=S(=O)(CCN1CCSCC1)c1ccc(Cl)cc1`, the “activity change, negative = growth inhibition” value is reported as inactive: 4.75%.
In the case of `CC1CCN(c2nc3c(c(=O)[nH]c(=O)n3C)n2Cc2ccccc2Cl)CC1`, the Potency is reported as inconclusive [inhibitor, single point].
For `CCOC(=O)C1=C(C)NC(C)=C(C(=O)OCC)C1c1ccc(Br)o1`, the Potency was active: 9.2 µM.
In the case of `Cn1nnc2c(sc3nc(N4CCOCC4)c4c(c32)CCCC4)c1=O`, the Potency is reported as inconclusive [inhibitor, single point].
With `COc1cccc(C(=O)/C=C/Nc2ccc(S(=O)(=O)Nc3ccc(C(C)=O)cc3)cc2)c1` the Potency was inconclusive [inhibitor, partial curve].
In the case of `Cn1cc(S(=O)(=O)N2CCc3ccccc32)cc1C(=O)NC(C)(C)C`, the Potency is reported as active: 3.26 µM.
With `O=C(CSc1nncc2ccccc12)N1CCCCC1` the “activity change, negative = growth inhibition” value was inactive: -5.18%.
For `CC(C)=CCC[C@H](C)C[C@@H]1CC2=C(C(=O)OC(C)(C)O2)[C@@H](c2ccc(F)cc2)O1`, the Potency was inconclusive [inhibitor, single point].
With `CCNc1nc(NCC)nc(N(C#N)CCOc2ccccc2)n1` the Potency was inconclusive [inhibitor, single point].
In the case of `CC(=O)Nc1cccc(-c2csc(NCc3ccccc3)n2)c1`, the Potency is reported as inconclusive [inhibitor, single point].
With `CC1CC(C)CN(C(=O)CSc2nc3ccsc3c(=O)n2Cc2ccccn2)C1` (stereo not drawn) the Potency was inconclusive [inhibitor, single point].
For `COc1cc(/C=C/C(=O)c2ccc(C)cc2)ccc1OCC#N`, the Potency was inconclusive [inhibitor, single point].
In the case of `CCc1nc(SCC(=O)Nc2ccnc3ccccc23)n[nH]1`, the “activity change, negative = growth inhibition” value is reported as inactive: -10.4%.
With `CCOC(=O)c1c(N)sc(C(O)(C(F)(F)F)C(F)(F)F)c1-c1ccc(F)cc1` the Potency was inconclusive [inhibitor, partial curve, poor fit].
With `CC(C)(C)C1CCC(OCC(O)CN2CCN(c3ccccc3)CC2)CC1` (stereo not drawn) the Potency was inconclusive [inhibitor, single point].
In the case of `CCc1ccc(CN2CCN(S(=O)(=O)Cc3ccccc3)CC2)cc1`, the activity change, negative = growth inhibition is reported as inconclusive: -31.9% [inhibitor].
In the case of `CC1Cc2ccccc2N1C(=O)CN1CCc2ccccc2C1` (stereo not drawn), the Potency is reported as inconclusive [inhibitor, single point].
For `O=C(N/N=C/c1ccc(N2CCOCC2)cc1)C1CC1`, the “activity change, negative = growth inhibition” value was inactive: 7.89%.
In the case of `CCCn1c(CN(C)Cc2ccccc2)nc2c1c(=O)n(C)c(=O)n2C`, the Potency is reported as active: 9.2 µM.
In the case of `COc1ccccc1CNC(=O)c1ccccc1SCC(=O)NCc1ccco1`, the Potency is reported as inconclusive [inhibitor, single point].
In the case of `CCc1c(-c2ccccc2OC)ncn1Cc1cccc(-c2ccccc2)c1`, the Potency is reported as active: 0.651 µM.
In the case of `NS(=O)(=O)c1ccccc1`, the “activity change, negative = growth inhibition” value is reported as inactive: -19.8%.
With `CCCCOC(=O)c1ccc(Nc2ncnc3c2cnn3-c2cccc(C)c2)cc1` the “activity change, negative = growth inhibition” value was inactive: -25.2%.
In the case of `COc1cccc(S(=O)(=O)NCc2ccc3c(c2)OCO3)c1`, the “activity change, negative = growth inhibition” value is reported as inactive: -21.8%.
In the case of `Clc1cccc2c1CCN(Cc1nc(-c3cnccn3)no1)C2`, the “activity change, negative = growth inhibition” value is reported as inactive: -5.33%.
For `COc1ccc(-c2nc(S(=O)(=O)c3ccc(C)cc3)c(N3CCCCC3)o2)cc1`, the “activity change, negative = growth inhibition” value was inactive: -26.3%.
For `Cc1cc(C)nc(Sc2ncnc3c2oc2ccccc23)n1`, the Potency was inconclusive [inhibitor, single point].
With `Cc1ccc(CNC(=O)CN2C(=O)CC(c3ccc(C)c(C)c3)=Nc3ccccc32)cc1` the Potency was inconclusive [inhibitor, single point].
With `O=C(COc1cccc2ccccc12)Nc1cc(Cl)ccc1C(=O)O` the “activity change, negative = growth inhibition” value was inactive: 10.9%.
In the case of `C[C@@H]1CN([C@H](C)CO)C(=O)CCCn2nncc2CO[C@H]1CN(C)S(C)(=O)=O`, the “activity change, negative = growth inhibition” value is reported as inactive: 5.86%.
With `COc1ccc2c(=O)c(-c3ccccc3C)c(C)oc2c1` the Potency was inconclusive [inhibitor, partial curve, poor fit].
For `O=S1(=O)CC(O)C(O)CS1` (stereo not drawn), the Potency was active: 23.1 µM.
With `CC(C)=NN/C(N)=N/C(=S)Nc1ccc(C)cc1` the Potency was inconclusive [inhibitor, single point].
With `Cc1cccn2c(CN3CCCC(c4ccccc4)C3)c(C(=O)N3CCOCC3)nc12` (stereo not drawn) the Potency was inconclusive [inhibitor, single point].
In the case of `CCCNC(=O)C1(C)CCCN(Cc2csc3ccccc23)C1` (stereo not drawn), the Potency is reported as inconclusive [inhibitor, single point].
